Assay results taken from paper PMC7819943, “Rice protein-binding microarrays: a tool to detect cis-acting elements near promoter regions in rice”.
The list shows a part of the results.

target: T1, OsWOX13 (Oryza sativa, UniProt Q5QMM3 1-267); experiment: protein-binding microarray (RPBM); PBS, 2% BSA, 51.3 ng/ul salmon testes DNA, 50 uM zinc acetate, 200 nM TF, 25 C, 1 h; high values mean tight binding; conditions: protein: recombinant; tags: N-terminal polyhistidine and DsRed monomer fusion (pET32a); label: CyDye5-dUTP incorporated in the synthesized complementary strand; 3' TTTTT single-stranded linker to array surface; dsDNA, one strand shown
T1 sequence: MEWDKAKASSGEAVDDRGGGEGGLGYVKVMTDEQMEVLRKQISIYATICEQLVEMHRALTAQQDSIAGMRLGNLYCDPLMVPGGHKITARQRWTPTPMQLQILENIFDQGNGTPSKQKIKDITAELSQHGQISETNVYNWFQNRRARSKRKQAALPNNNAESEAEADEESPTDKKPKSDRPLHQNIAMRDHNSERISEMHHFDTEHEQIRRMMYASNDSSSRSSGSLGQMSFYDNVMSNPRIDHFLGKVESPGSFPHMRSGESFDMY
Summary of the method: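 In PBS with 2% BSA, salmon testes DNA and 50 µM zinc acetate, 200 nM protein was incubated on a custom Agilent array at 25 °C for 1 h and then washed off. The array had been made double-stranded by primer extension with Cy5-dUTP and blocked with 2% BSA. The proteins were transcription factors fused N-terminally to polyhistidine and DsRed, expressed in E. coli BL21-CodonPlus and purified on Ni–NTA. The binding signal is per-feature fluorescence intensity (arbitrary units) from an Axon 4000B scanner.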

Sequence | binding signal
AGCTAATGAAGAAGTAACATCGCATCAATGGACATAACAACGGAGTCACCTAGTGCAG | 3210 fluorescence intensity (a.u.)
GATGCAATTTACACCCTTGATGAATCATCCAAAGAATAAACGGAGTCACCTAGTGCAG | 4700 fluorescence intensity (a.u.)
TTTAATAAAATAATTTTATATTTTAGATGTTGCTAATATTCGGAGTCACCTAGTGCAG | 4760 fluorescence intensity (a.u.)
CATCATTTCAATTTCAACCAAATTTCTAATTTTAGCGTGACGGAGTCACCTAGTGCAG | 5200 fluorescence intensity (a.u.)
TTATTAATAGGTGTTGATCTAAAATATATCTTTTACATGCCGGAGTCACCTAGTGCAG | 6100 fluorescence intensity (a.u.)
CTTAATGACACAAATTTCCGTAGCCTGACAAAGTACACACCGGAGTCACCTAGTGCAG | 11100 fluorescence intensity (a.u.)
TCAAGATTGGTGCGATTGAGACCAAAAGCATGGTGTACATCGGAGTCACCTAGTGCAG | 30300 fluorescence intensity (a.u.)
GGTTAATTTATACTCATTTTACGATTAACGTTATAAATGACGGAGTCACCTAGTGCAG | 30500 fluorescence intensity (a.u.)
TATTTTGTTTGTGATTTGATTTATTATCAAAAGTAATTTACGGAGTCACCTAGTGCAG | 7280 fluorescence intensity (a.u.)
AATTTAACTGTAAATATACATATAGTAATTTGAGTTTTATCGGAGTCACCTAGTGCAG | 4840 fluorescence intensity (a.u.)
ATTTAAACAAGAATGTAAATTGTTTGACGAGAGACGACGACGGAGTCACCTAGTGCAG | 10500 fluorescence intensity (a.u.)
ATTAATTTGTTCTCGTCTTTATTATCTGGGTTGCCCTATACGGAGTCACCTAGTGCAG | 26500 fluorescence intensity (a.u.)
ATAAGATTGAAATAGTCTTTACCTGTCGCAACGCACGGATCGGAGTCACCTAGTGCAG | 22000 fluorescence intensity (a.u.)
AATAACCACCCAAATTAGATACGGACTAACAGCTGAGCAACGGAGTCACCTAGTGCAG | 5970 fluorescence intensity (a.u.)
GGATTGAAGATTGAAGACGGCAGTCAGCTAGCTATGCGAGCGGAGTCACCTAGTGCAG | 15500 fluorescence intensity (a.u.)
ACACAGACCAAGGATAATTGATTCTACTTATCATCTATTTCGGAGTCACCTAGTGCAG | 12600 fluorescence intensity (a.u.)
TATTGATTAATATGTAAGTATGTGTAACAAATTAATTGTACGGAGTCACCTAGTGCAG | 26400 fluorescence intensity (a.u.)
CCTTAATTGCATCGGTTAATCTGAATTTCTCCCTGTAATTCGGAGTCACCTAGTGCAG | 32300 fluorescence intensity (a.u.)
AACAATTTGATCAAGAGTTGACCGAGATAATCCCACTTGCCGGAGTCACCTAGTGCAG | 4370 fluorescence intensity (a.u.)
ATGATTGAATCCTATAAAATCTTGTGAAATTCCTGTGAAACGGAGTCACCTAGTGCAG | 52800 fluorescence intensity (a.u.)
AAATTAATTATACAAATGAACCGTGGCCAAAACTTATTTTCGGAGTCACCTAGTGCAG | 4450 fluorescence intensity (a.u.)

Sequence | binding signal
ACAAAATCAATCAGTTTCTTTCACGTAAACAAGCTCACAGCGGAGTCACCTAGTGCAG | 32000 fluorescence intensity (a.u.)
CTCTGGATCTTGTTAATTAATTAATGAATGAATTCCGGTACGGAGTCACCTAGTGCAG | 27100 fluorescence intensity (a.u.)
GTTTCAGCAGTTTTCAATTATCTTGACATCATATATGAGTCGGAGTCACCTAGTGCAG | 6260 fluorescence intensity (a.u.)
CTATATTAATTAATGAATTAGCAATTGGATGTACCAATTTCGGAGTCACCTAGTGCAG | 38900 fluorescence intensity (a.u.)
ATAAATCATAATCATGGAGGATATTTGTTATCCTCTAAAACGGAGTCACCTAGTGCAG | 5470 fluorescence intensity (a.u.)
AAGCCTAATCTAAATGGATTATTTCTTCCATTCCATGTACCGGAGTCACCTAGTGCAG | 6240 fluorescence intensity (a.u.)
ATAGTATATGATGGATGAGATGGATGCATAGATGGATTGGCGGAGTCACCTAGTGCAG | 3330 fluorescence intensity (a.u.)
GCTACCAAATTTTGTTAACTATATAATAAATCTTGCTAAACGGAGTCACCTAGTGCAG | 4470 fluorescence intensity (a.u.)
TGTTAGTAATAATTAATTATGATGGCAAGTGCATGGCATGCGGAGTCACCTAGTGCAG | 19300 fluorescence intensity (a.u.)
CTCCTGAATGTGATTTGAGTGTTTTCTACAACATTTTAATCGGAGTCACCTAGTGCAG | 3780 fluorescence intensity (a.u.)
TTAATTGAGCACCACGAGGGAACTAACCGAAAATATGTAGCGGAGTCACCTAGTGCAG | 9040 fluorescence intensity (a.u.)
GATAATTTTGTTTGGGTGCTACTCGCGCAATTGCGCGGGCCGGAGTCACCTAGTGCAG | 5800 fluorescence intensity (a.u.)
CATGATTTATTTGATAAGCTAGGGGCGCCACGTGGCCCAACGGAGTCACCTAGTGCAG | 24000 fluorescence intensity (a.u.)
ACACTAATTTGGAGTATTAAACATATACTAATTACAAAACCGGAGTCACCTAGTGCAG | 26600 fluorescence intensity (a.u.)
TTAATTATTAGCTACAGTTGAGCTCGCTCGATTCGATCCCCGGAGTCACCTAGTGCAG | 4530 fluorescence intensity (a.u.)
TTAGTAAATATTTACTTCAATTGATGAACTGTGCGCAAACCGGAGTCACCTAGTGCAG | 4760 fluorescence intensity (a.u.)
TGGTTACAACTAATTTACTAATCATCATCTGGGATTAGCACGGAGTCACCTAGTGCAG | 24900 fluorescence intensity (a.u.)
TTTTACTTTCAATAATTGCCATGACACCTACACCCGGAGGCGGAGTCACCTAGTGCAG | 11000 fluorescence intensity (a.u.)
TGGCGTGACCAGATTGATGACATACTGGCCAAGATATGGTCGGAGTCACCTAGTGCAG | 15300 fluorescence intensity (a.u.)
ATCGATTTTAATTACCAAACGGTAACGGAATGAATGCTGTCGGAGTCACCTAGTGCAG | 16400 fluorescence intensity (a.u.)
ATGATTACTCTAAAATGGACTTATTTCGGAACAAAAGGGCCGGAGTCACCTAGTGCAG | 14700 fluorescence intensity (a.u.)
